The text below walks through data of the supplement of paper PMC4894684.

Structures are written as SMILES. Structures can show the parent of a compound that is named as a salt. ± gives the standard deviation of the averaged measurements. Out of some 1,000 compounds screened, about 15 (2%) showed an effect of 50% or more. The list shows a part of the results.
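Also: confluent HFF monolayers, run in parallel with the Toxoplasma growth screen as a host toxicity counterscreen.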

In this experiment the test system is HFF. The experiment can be described thus: uninfected host cell viability relative to vehicle control; higher = less host cell toxicity. As to conditions: 5 µM; 72 h; oxygen 21 %.
In the case of `CN(C)CCCSc1ccccc1NC(=O)/C=C/c1ccccc1` [Cinanserin hydrochloride], the “uninfected host cell viability” value was 87.5 ± 2.2%.
As for `O=C(O)CC/C=C\C[C@H]1CO[C@@H](c2ccccc2Cl)O[C@H]1c1ccccc1O`, the “uninfected host cell viability” value is 98.6 ± 1.1%.
`CCCCCCCC/C=C\CCCCCCCC(=O)NCc1ccc(O)c(OC)c1` [Olvanil]: the “uninfected host cell viability” value came out at 82.3 ± 1.8%.
Consider `COc1ccc(-c2nc(C(=O)N3CCN(C)CC3)sc2-c2ccc(OC)cc2)cc1`, for which the “uninfected host cell viability” value came out at 81.4 ± 4.7%.
For `Cc1nn(C)c2nc(NNC(=O)Nc3cc(Cl)nc(Cl)c3)cc(C(C)C)c12`, the “uninfected host cell viability” value is 89.2 ± 3.1%.
The figure for `CC(C)Oc1cccc(-n2c(CCc3c[nH]c4ccc(Br)cc34)nc3ccccc3c2=O)c1` is 92.8 ± 5.5%.
In the case of `CC1(CN2CCC(n3c(=O)[nH]c4ccccc43)CC2)OCc2ccccc2-n2cccc21` (centres undefined), the “uninfected host cell viability” value was 94.4 ± 2%.
For `COc1ccc(CCN(C)CCc2ccc(OC)c(OC)c2)cc1OC` [YS-035 hydrochloride] the value was 88.4 ± 2%; for `CCCn1c(=O)c2[nH]c(-c3ccccc3)nc2n(CCC)c1=O` [1,3-Dipropyl-8-phenylxanthine], 100 ± 7.9%; for `Clc1ccc2c(c1)N=C(N1CCNCC1)c1ccccc1N2` [N-Desmethylclozapine], 86.15 ± 0.28%.
Regarding `COc1ccc([C@@H]2CNC(=O)C2)cc1OC1CCCC1` [(R)-(-)-Rolipram], the “uninfected host cell viability” value was 82.9 ± 1%.
Take `N[C@H]1CCN(O)C1=O`: the “uninfected host cell viability” value was 90 ± 4.5%.
For `Nc1[nH]nc2nc3ccccc3nc12` the value was 85.7 ± 7.2%.
For `CN(CCc1ccc(Cl)c(Cl)c1)CC(O)COc1ccc(NS(C)(=O)=O)cc1` (centres undefined) the value was 98.6 ± 6.4%.
For `COc1cc2c(cc1O)CC[C@@H]1[C@@H]2CC[C@]2(C)[C@@H](O)CC[C@@H]12` [2-Methoxyestradiol] the value was 89.4 ± 7.2%; for `CN(C)c1nc(N)c(C(=O)Nc2cccnc2)nc1Cl` [ACDPP hydrochloride], 97.2 ± 3.6%; for `N#Cc1ccc(NCCNCC(=O)N2CCC[C@H]2C#N)nc1` [NVP DPP 728 dihydrochloride], 97.8 ± 1.5%.
On to `COC(=O)C1=C(C)NC(C)=C(C(=O)OC)C1c1ccccc1[N+](=O)[O-]` [Nifedipine], for which the “uninfected host cell viability” value was found to be 81.3 ± 2.3%.
For `CN(C)CCCN1c2ccccc2CCc2ccc(Cl)cc21` [Clomipramine hydrochloride] the value was 85.211 ± 0.0046%; for `COc1cc(Br)c(S(=O)(=O)Nc2ccc(Cl)c(O[C@@H]3CCN(C)C3)c2)cc1OC`, 96.9 ± 3%; for `CCN(CC)CCOC(=O)C1(c2ccc([N+](=O)[O-])cc2)CCCC1` [Nitrocaramiphen hydrochloride], 96.4 ± 4%.
For `CC(C)(C)c1ccc(/C=C/C(=O)Nc2ccc3c(c2)OCCO3)cc1` the value was 78.46 ± 0.51%.
For `CC(Oc1ccc(O)cc1)(P(=O)(O)O)P(=O)(O)O` the value was 95.3 ± 1.8%.
Consider `CN(C)CCC1(c2ccc(Cl)cc2)Cc2ccccc2C(=O)O1` (racemic) [(±)-AC 7954 hydrochloride], for which the “uninfected host cell viability” value amounted to 102.9 ± 0.53%.
For `COCCCC/C(=N\OCCN)c1ccc(C(F)(F)F)cc1` [Fluvoxamine maleate] the value was 91.94 ± 0.13%.
For `CCCCC1CCC(c2nc(-c3ccncc3)no2)CC1` (centres undefined) the value was 102 ± 3.9%; for `O=C(Nc1cc(C(F)(F)F)cc(C(F)(F)F)c1)c1cc(Cl)ccc1O`, 46.8 ± 2.5%.
As for `COc1ccc(CC(C)NCC(O)c2ccc(O)c(NC=O)c2)cc1` (centres undefined) [Formoterol hemifumarate], the “uninfected host cell viability” value was 97.3 ± 1.1%.
For the compound `O=C(OCCN1CCOCC1)C1(c2ccccc2)CCCCC1` [PRE-084 hydrochloride], the “uninfected host cell viability” value is 89.3 ± 4.8%.
Turning to `COc1[nH]c2ccc(F)cc2c1C(=O)OCC1CCN(CCNS(C)(=O)=O)CC1.NS(=O)(=O)O`, the “uninfected host cell viability” value worked out at 89.8 ± 2.6%.
For `CN=c1nc(-c2ccccc2)n(-c2ccccc2)s1` the value was 84.4 ± 5.6%.
For `Nc1nnc(Sc2ncc([N+](=O)[O-])s2)s1` the value was 89.9 ± 4.9%.
For `O=C(c1ccc(F)cc1)C1CCN(CCCCc2ccccc2)CC1` [4-(4-Fluorobenzoyl)-1-(4-phenylbutyl)-piperidine oxalate] the value was 89 ± 2.3%; for `O=C(COc1cccc2c(=O)[nH]ccc12)c1ccccc1`, 96.3 ± 7.2%.
`O=C(O)Cn1c(C(=O)Nc2nc(-c3ccccc3Cl)cs2)cc2ccccc21`: the “uninfected host cell viability” value amounted to 89.61 ± 0.48%.
`CCCCCCCCCCCCCCCC(=O)O[C@H](CC(=O)O)C[N+](C)(C)C` (racemic) [(±)-Palmitoylcarnitine chloride]: the “uninfected host cell viability” value was found to be 89.8 ± 4.6%.
With `CCCC[P+](CCCC)(CCCC)Cc1ccc(NC(=O)C(Cc2ccc3ccccc3c2)NC(=NC2CCCCC2)NC2CCCCC2)cc1` (centres undefined), the “uninfected host cell viability” value was determined as 85.8 ± 2.3%.
For `N#C/C(=C\c1ccc(O)c(O)c1)C(=O)Nc1ccccc1` the value was 79.9 ± 1.9%; for `CN1Cc2c(C(=O)OC(C)(C)C)ncn2-c2ccsc2C1=O`, 97.9 ± 4.9%.
For `O=C1NC(=O)C(c2ccccc2[N+](=O)[O-])=C1Nc1ccc(O)c(Cl)c1` the value was 81.3 ± 3.2%; for `CNc1cc2c(Nc3cccc(Br)c3)ncnc2cn1`, 80.8 ± 2%.
For `C[C@@H]1CN(CCCn2c3ccccc3c3ccccc32)C[C@H](C)N1` [Rimcazole dihydrochloride] the value was 80.6 ± 2.8%; for `Oc1ccc(C2CNCCc3c2cc(O)c(O)c3Cl)cc1` (centres undefined) [Fenoldopam hydrochloride], 90.23 ± 0.32%; for `CC(=Cc1ccc(C(=O)O)cc1)c1ccc2c(c1)C(C)(C)CCC2(C)C`, 80.4 ± 2.1%.
Turning to `O=C(O)CN1C(=O)c2cccc3cccc(c23)C1=O` [Alrestatin], the “uninfected host cell viability” value was 101 ± 6.3%.
For `COC(=O)Nc1nc2cc(C(=O)c3cccs3)ccc2[nH]1` [Nocodazole] the value was 75 ± 2.4%.
The figure for `COC(=O)C1=C(C)NC(C)=C(C(=O)OCCCN2CCC(c3ccccc3)(c3ccccc3)CC2)[C@@H]1c1cccc([N+](=O)[O-])c1` [(R)-(-)-Niguldipine hydrochloride] is 76.3 ± 0.78%.
The figure for `NCCc1c[nH]cn1` [Histamine dihydrochloride] is 96.1 ± 2.4%; for `CC(C)(C=O)Cc1cc(C(C)(C)C)c(O)c(C(C)(C)C)c1` it is 89.6 ± 8.5%.
On to `C[C@H]1O[C@H](O[C@H]2[C@H](O)[C@@H](O)[C@@H](O[C@H]3[C@H](O)[C@@H](O)C(O)O[C@@H]3CO)O[C@@H]2CO)[C@H](O)[C@@H](O)[C@@H]1N[C@H]1C=C(CO)[C@@H](O)[C@H](O)[C@H]1O` (some centres undefined) [Acarbose], for which the “uninfected host cell viability” value amounted to 93.6 ± 8.3%.
The figure for `CN1CCC(=C2c3ccccc3C=Cc3ccccc32)CC1` [Cyproheptadine hydrochloride] is 75.4 ± 4.6%; for `COc1cc2c(Nc3ccc(NC(=O)c4ccccc4)cc3)ncnc2cc1OCCCN1CCOCC1` it is 64.74 ± 0.56%; for `N[C@H](C(=O)O)c1ccc(O)c(C(=O)O)c1` [(S)-3-Carboxy-4-hydroxyphenylglycine] it is 83.1 ± 0.11%.
Consider `COc1ccc(CN2C(=O)C(=O)c3cc(OC(F)(F)F)ccc32)cc1`, for which the “uninfected host cell viability” value worked out at 87.9 ± 3.1%.
For `COc1cccc(/C=N/N=C/c2cccc(OC)c2)c1` the value was 83.58 ± 0.31%; for `C[C@@H](NCc1cc(Br)cc2[nH]c(=O)c(=O)[nH]c12)P(=O)(O)O`, 88.3 ± 3.9%.
On to `O/N=C/c1ccc(-c2ccc(O)c(F)c2)c(Cl)c1O`, for which the “uninfected host cell viability” value worked out at 91.86 ± 0.49%.
For `COc1cc(C(=O)OCCCN2CCCN(CCCOC(=O)c3cc(OC)c(OC)c(OC)c3)CC2)cc(OC)c1OC` [Dilazep dihydrochloride] the value was 98.9 ± 5.1%.
For `CCCCC/N=c1\ccn(Cc2ccccc2)c2ccccc12` the value was 83.1 ± 2.5%; for `CN1c2cc3c(cc2N=C(c2ccc(C(=O)O)cc2)c2ccccc21)C(C)(C)CCC3(C)C`, 100 ± 8.6%; for `COc1nccc(-c2c(-c3ccc(F)cc3)ncn2C2CCC(O)CC2)n1` (centres undefined), 93.53 ± 0.38%.
As to `OCCNCCCOc1cccc(Cl)c1Cl` [2,3-DCPE hydrochloride], the “uninfected host cell viability” value worked out at 81.7 ± 3.9%.
For `C[N+]1(C)CCC(OC(=O)C(c2ccccc2)c2ccccc2)CC1` the value was 100.2 ± 0.87%.
For `O=C1C=CC(=O)C2=C1C1c3ccccc3C2c2ccccc21` the value was 88.5 ± 4.6%; for `O=C(O)c1c(Sc2ccccc2)c2cc(Cl)ccc2n1Cc1ccc(Cl)cc1`, 93.9 ± 8.2%.
For `CCCCOc1cc(CC2CNC(=O)N2)ccc1OC` (centres undefined) the value was 87 ± 1.2%; for `CCOc1ccccc1OC(c1ccccc1)C1CNCCO1` (centres undefined) [Reboxetine mesylate], 97.2 ± 6.6%; for `O=S1(=O)c2cccc3cccc(c23)N1CCCN1CCN(c2ccc(F)cc2)CC1` [Fananserin], 87.5 ± 3.8%.
As to `Nc1ncnc2c1ncn2C1CCCO1` (centres undefined), the “uninfected host cell viability” value was 98.1 ± 1.2%.
In the case of `CC1c2ccccc2CN1CC1=NCCN1` (centres undefined), the “uninfected host cell viability” value was 89 ± 2.3%.
On to `Cn1cccc1/C=C1\C(=O)NC(=O)c2ccccc21`, for which the “uninfected host cell viability” value was determined as 97 ± 1.7%.
As for `COc1cc2c(CCNC(C)=O)c[nH]c2cc1Cl` [6-Chloromelatonin], the “uninfected host cell viability” value was 89.6 ± 1.9%.
The figure for `CCCn1c(=O)[nH]c2nc(-c3ccc(S(=O)(=O)O)cc3)[nH]c2c1=O` is 86.34 ± 0.58%.
The figure for `CC(Cc1ccc(O)c(O)c1)(NN)C(=O)O` [(S)-(-)-Carbidopa] is 86.5 ± 4.4%; for `CN(Cc1cnc2nc(N)nc(N)c2n1)c1ccc(C(=O)N[C@@H](CCC(=O)O)C(=O)O)cc1` [Methotrexate] it is 90.6 ± 3.5%.
On to `CC(C)(Sc1ccc(CCN(CCCCC2CCCCC2)C(=O)NC2CCCCC2)cc1)C(=O)O`, for which the “uninfected host cell viability” value came to 101 ± 1.1%.
The figure for `OC(CN1CCN(c2cccc(Cl)c2)CC1)C(c1ccccc1)c1ccccc1` (centres undefined) is 90.1 ± 1.8%; for `CCCCNc1c(C(=O)OCC)c(C)nc2c1cnn2CC` [Tracazolate hydrochloride] it is 100.8 ± 1%.
For `COc1cc(-c2ccc(=O)[nH]n2)ccc1OC(F)F` [Zardaverine] the value was 90.7 ± 2.2%; for `CC[N+](CC)(CC)CC(=O)Nc1c(C)cccc1C` [QX 314 chloride], 87.3 ± 3%; for `CC[N+](CC)(CC)CC(=O)Nc1c(C)cccc1C` [QX 314 bromide], 95.6 ± 3%.
For the compound `c1ccc(COCCCc2c[nH]cn2)cc1` [Proxyfan Oxalate], the “uninfected host cell viability” value came to 97.3 ± 1.1%.
`O=C(NCCN1CCCCC1)c1ccc(I)cc1` [N-[2-(Piperidinylamino)ethyl]-4-iodobenzamide]: the “uninfected host cell viability” value was 83.6 ± 0.99%.
The figure for `CC1=C(/C=C/C(=C/C=C/C(C)=C/C(=O)O)c2ccc(C)cc2)C(C)(C)CCC1` is 111 ± 1.8%.
The figure for `COC(=O)Nc1ccc2[nH]cc(CCNC(C)=O)c2c1` is 94.6 ± 3.5%; for `Cc1cc(C)c(S(=O)(=O)Nc2cccc(C(F)(F)F)c2)c(C)c1` it is 82.4 ± 6.6%.
For `N#C/C(=C\c1ccc(O)c(O)c1)C(=O)NCc1ccccc1` the value was 82.5 ± 2%; for `c1nc(CC2CCNCC2)c[nH]1` [Immepip dihydrobromide], 81.5 ± 3.3%.
Regarding `O=C(O)C1=CCCN(CCON=C(c2ccccc2)c2ccccc2)C1`, the “uninfected host cell viability” value stood at 89.4 ± 4.1%.
